Measured values as given in the supplement of paper PMC10670038.
Counter-ions that a name gives are not always drawn. ± gives the standard deviation of the averaged measurements. In all, about 2,000 compounds were measured (“relative cell viability vs DMSO, compound + 0.2 uM CuET”: median about 1, lowest 2% from about 0.25 on). This is one part of the list.

What follows are molecules tested on TE10 (assay: relative cell viability vs DMSO, compound + 0.2 uM CuET (fraction); TE10 is an esophageal squamous carcinoma line; higher = less cytotoxic). Settings: 2 µM; co-treatment: CuET (bis(diethyldithiocarbamate)copper) 0.2 uM; 48 h.
Description: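 TE10 ESCC cells (1,000/well, 384-well plates) were treated with Selleck bioactive library compounds at 2 uM combined with 0.2 uM CuET (copper diethyldithiocarbamate) for 48 h. Viability was read by CellTiter-Glo and expressed relative to DMSO wells. Two technical replicates (A, B).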

Row | SMILES | relative cell viability
1 | OC(c1cc(C(F)(F)F)nc2c(C(F)(F)F)cccc12)C1CCCCN1 (stereo not given) [Mefloquine HCl] | 0.901 ± 0.04
2 | O=C(c1ccc(/C=C/c2n[nH]c3ccccc23)cc1)N1CCNCC1 | 0.9262 ± 0.0063
3 | C/C(=C\C(=O)Nc1ccccc1C(=O)O)c1ccc2ccccc2c1 | 1.14 ± 0.058
4 | Cc1ccc(-n2sc(=O)n(Cc3ccc(F)cc3)c2=O)cc1 | 0.733 ± 0.23
5 | O=C(NCCN1CCOCC1)c1ccc(Cl)cc1 | 1.39 ± 0.082
6 | Cc1cc(Cl)ccc1OCCCC(=O)NO [Droxinostat] | 0.997 ± 0.063
7 | CN(C)CCOc1ccc(-c2nc(-c3ccncc3)c(-c3ccc4c(c3)CC/C4=N\O)[nH]2)cc1 | 1.2261 ± 0.0011
8 | C[C@H](Cc1cc2c(c(C(N)=O)c1)N(CCCO)CC2)NCCOc1ccccc1OCC(F)(F)F [Silodosin] | 1.09 ± 0.15
9 | O=C(O)C1=CO[C@@H](O[C@@H]2O[C@H](CO)[C@@H](O)[C@H](O)[C@H]2O)[C@@H]2C(CO)=CC[C@H]12 [Geniposidic acid] | 0.949 ± 0.015
10 | O=C(Oc1ccccc1C(=O)O)c1ccccc1O [Sasapyrine] | 1.08 ± 0.022
11 | COc1c(C)c2c(c(O)c1C/C=C(\C)CCC(=O)O)C(=O)OC2 [Mycophenolic acid] | 0.825 ± 0.051
12 | NS(=O)(=O)c1cc(Cl)c(Cl)c(S(N)(=O)=O)c1 [Dichlorphenamide] | 1.02 ± 0.15
13 | CS(=O)(=O)c1ccc(-c2cnc(N)c(C(=O)Nc3ccccc3)n2)cc1 | 0.761 ± 0.07
14 | O=c1c(-c2ccc(O)cc2)coc2cc(O)ccc12 [Daidzein] | 0.808 ± 0.11
15 | O=C(O)CCCCC(CCSCc1ccccc1)SCc1ccccc1 (stereo not given) | 0.975 ± 0.14
16 | CC1(C)CC[C@]2(C(=O)O)CC[C@]3(C)C(=CC[C@@H]4[C@@]5(C)CC[C@H](O)C(C)(C)[C@@H]5CC[C@]43C)[C@@H]2C1 [Oleanolic Acid] | 1.17 ± 0.044
17 | CC(C)(C)c1nc(-c2cccc(NS(=O)(=O)c3c(F)cccc3F)c2F)c(-c2ccnc(N)n2)s1 | 0.78 ± 0.37
18 | C[C@H]1O[C@@H](n2cc(F)c(=O)[nH]c2=O)[C@H](O)[C@@H]1O [Doxifluridine] | 1.08 ± 0.037
19 | Cc1c(C(=O)Nc2ccc(N3CCC(N4CCOCC4)CC3)c(C#N)c2)cnn1-c1ccc(Cl)cc1 | 0.874 ± 0.062
20 | Nc1c(CC(=O)O)cccc1C(=O)c1ccc(Br)cc1 [Bromfenac Sodium] | 1.14 ± 0.041
21 | Cc1cc(C)c2c(c1)[C@@H](N(Cc1cc(C(F)(F)F)cc(C(F)(F)F)c1)c1nnn(C)n1)CCCN2C[C@H]1CC[C@H](C(=O)O)CC1 | 1.03 ± 0.038
22 | CNC(=O)c1ccccc1Nc1nc(Nc2ccc(N3CCOCC3)cc2OC)ncc1Cl | 0.942 ± 0.2
23 | CC1=C(C(=O)Nc2cc3cn[nH]c3cc2F)C(c2ccc(C(F)(F)F)cc2)CC(=O)N1 (stereo not given) | 1.11 ± 0.021
24 | CCOC(=O)c1ncn2c1CN(C)C(=O)c1cc(F)ccc1-2 [Flumazenil] | 1.18 ± 0.21
25 | C=C1CC2(O)OC3(CC2C(C)C)C(C)CCC13 (stereo not given) [Curcumol] | 0.838 ± 0.028
26 | COC(=O)N[C@H](C(=O)N1CCC[C@H]1c1ncc(-c2ccc(-c3ccc(-c4cnc([C@@H]5CCCN5C(=O)[C@@H](NC(=O)OC)C(C)C)[nH]4)cc3)cc2)[nH]1)C(C)C | 0.863 ± 0.086
27 | CCCCN(Cc1ccc(C(=O)NO)cc1)C(=O)Nc1ccccc1 [Nexturastat A] | 0.837 ± 0.056

Row | SMILES | relative cell viability
28 | NCCCC[C@@H]1NC(=O)[C@@H](Cc2ccccc2)NC(=O)[C@H](CC(=O)O)NC(=O)CNC(=O)[C@H](CCCN=C(N)N)NC1=O [Cyclo (-RGDfK)] | 1.21 ± 0.043
29 | c1cc(-c2cnn3cc(-c4ccc(N5CCNCC5)cc4)cnc23)c2cccnc2c1 | 0.182 ± 0.0055
30 | COc1ccc(/C=C\c2cc(OC)c(OC)c(OC)c2)cc1O [Combretastatin A4] | 0.883 ± 0.051
31 | CCCC1O[C@@H]2C[C@H]3[C@@H]4CCC5=CC(=O)C=C[C@]5(C)[C@H]4[C@@H](O)C[C@]3(C)[C@]2(C(=O)CO)O1 (stereo not given in full) [Budesonide] | 1.23 ± 0.077
32 | CCOC(=O)[C@H](CCc1ccccc1)N[C@H]1CCCN2CCC[C@@H](C(=O)O)N2C1=O [Cilazapril Monohydrate] | 1.05 ± 0.041
33 | COc1cc(C(C)=O)ccc1OCCCN1CCC(c2noc3cc(F)ccc23)CC1 [Iloperidone] | 1.06 ± 0.038
34 | COc1ccc(C(=O)CC(=O)c2ccc(C(C)(C)C)cc2)cc1 [Avobenzone] | 0.972 ± 0.046
35 | CC(=O)OCC(=O)[C@@]1(O)[C@H](C)C[C@H]2[C@@H]3CCC4=CC(=O)C=C[C@]4(C)[C@@]3(F)[C@@H](O)C[C@@]21C [Dexamethasone Acetate] | 1.13 ± 0.098
36 | COc1c(N2C[C@@H]3CCCN[C@@H]3C2)c(F)cc2c(=O)c(C(=O)O)cn(C3CC3)c12 [Moxifloxacin HCl] | 1.28 ± 0.023
37 | NC1CC1c1ccc(-c2cccc(O)c2)cc1 (stereo not given) | 1.13 ± 0.036
38 | COc1ccc2[nH]c([S@@+]([O-])Cc3ncc(C)c(OC)c3C)nc2c1 [Esomeprazole Sodium] | 1.1 ± 0.048
39 | COc1ccc2[nH]c([S@@+]([O-])Cc3ncc(C)c(OC)c3C)nc2c1 [Esomeprazole Magnesium] | 0.991 ± 0.073
40 | CS(=O)(=O)N1CCN(Cc2cc3nc(-c4cccc5[nH]ncc45)nc(N4CCOCC4)c3s2)CC1 | 0.68 ± 0.0074
41 | CC(C)NCC(O)c1ccc(O)c(O)c1 (stereo not given) [Isoprenaline HCl] | 1.19 ± 0.032
42 | Nc1nc2c(ncn2COCCO)c(=O)[nH]1 [Aciclovir] | 1.08 ± 0.072
43 | CC#CC(=O)Nc1ccc2ncnc(Nc3cccc(Br)c3)c2c1 | 0.546 ± 0.034
44 | O=S(=O)(c1ccccc1)N(CC(F)(F)F)c1ccc(C(O)(C(F)(F)F)C(F)(F)F)cc1 | 1 ± 0.084
45 | C#C[C@]1(O)CC[C@H]2[C@@H]3CCc4cc(O)ccc4[C@H]3CC[C@@]21C [Ethinyl Estradiol] | 1.06 ± 0.074
46 | COc1cc(F)c(F)c(Nc2ccc(I)cc2F)c1NS(=O)(=O)C1(C[C@H](O)CO)CC1 [Refametinib (RDEA119, Bay 86-9766)] | 0.952 ± 0.1
47 | CCOc1cc(CC(=O)N[C@@H](CC(C)C)c2ccccc2N2CCCCC2)ccc1C(=O)O [Repaglinide] | 1.15 ± 0.065
48 | O=C(O)C(Cc1c[nH]c2ccccc12)N1C(=O)c2ccccc2C1=O (stereo not given) | 1.02 ± 0.12
49 | CCOC(=O)C1=C(C)NC(C)=C(C(=O)OCC)C1c1ccccc1/C=C/C(=O)OC(C)(C)C [Lacidipine] | 0.785 ± 0.011
50 | COc1cc2/c(=N/c3ccc(Br)cc3F)nc[nH]c2cc1OCC1CCN(C)CC1 [Vandetanib (ZD6474)] | 1.07 ± 0.026
51 | CCN(CC)C(=S)SSC(=S)N(CC)CC [Disulfiram] | 0.0338 ± 0.0054
52 | Cc1cc(OCCCS(C)(=O)=O)cc(C)c1-c1cccc(COc2ccc3c(c2)OC[C@H]3CC(=O)O)c1 | 1.1 ± 0.087
53 | C=C[C@@]1(C)CC(=O)[C@]2(O)[C@@]3(C)[C@@H](O)CCC(C)(C)[C@@H]3[C@H](O)[C@H](OC(C)=O)[C@@]2(C)O1 [Forskolin] | 1.18 ± 0.025
54 | O=C(CCCCCN1C(=O)c2cccc3cccc(c23)C1=O)NO [Scriptaid] | 0.331 ± 0.039

Row | SMILES | relative cell viability
55 | COc1ccc2c(c1)c(C1=C(c3c[nH]c4ccccc34)C(=O)NC1=O)cn2CCCN(C)C | 1.02 ± 0.045
56 | O=c1cc(-c2ccccc2)oc2cc(O)cc(O)c12 [Chrysin] | 1.03 ± 0.013
57 | COC(=O)C1=C(C)NC(C)=C(C(=O)OC2CCCN(Cc3ccccc3)C2)C1c1cccc([N+](=O)[O-])c1 (stereo not given) [Benidipine HCl] | 0.92 ± 0.033
58 | CCNC(=O)CCC/C=C\C[C@@H]1[C@@H](/C=C/[C@@H](O)CCc2ccccc2)[C@H](O)C[C@@H]1O [Bimatoprost] | 1.4 ± 0.37
59 | COc1ccc(S(=O)(=O)Nc2cccnc2Nc2ccc(O)cc2)cc1 | 0.856 ± 0.11
60 | O=C(Nc1cc2cc[nH]c2cn1)c1ccccc1 | 0.3986 ± 0.0004
61 | O=C1NCCc2[nH]c(-c3ccncc3)cc21 | 1.07 ± 0.1
62 | O=C(/C=C/c1ccc(O)c(O)c1)c1ccc(O)cc1O [Butein] | 0.864 ± 0.04
63 | O=C(CCCCCCC(=O)Nc1ccccc1)NO [Vorinostat (SAHA, MK0683)] | 0.473 ± 0.055
64 | Nc1nonc1C(=Nc1ccc(F)c(Cl)c1)NO | 1.15 ± 0.14
65 | NCCCCCNCC12CC3CC(CC(C3)C1)C2 [IEM 1754 dihydrobroMide] | 1.35 ± 0.15
66 | CC1(C)O[C@@H]2C[C@H]3[C@@H]4CCC5=CC(=O)C=C[C@]5(C)[C@H]4[C@@H](O)C[C@]3(C)[C@]2(C(=O)CO)O1 [Desonide] | 1.08 ± 0.02
67 | O=C(O)c1ccc2c(c1)nc(Nc1cccc(Cl)c1)c1ccncc12 [CX-4945 (Silmitasertib)] | 1.05 ± 0.025
68 | O=C1CC(=O)c2c(Cl)c(Cl)c(Cl)c(Cl)c21 | 1.08 ± 0.056
69 | CCOC(=O)n1ccn(C)c1=S [Carbimazole] | 1.01 ± 0.12
70 | COc1cc(N2CCC(N)CC2)ccc1Nc1ncc(Cl)c(-c2c[nH]c3ccccc23)n1 | 0.526 ± 0.02
71 | Nc1[nH]nc2nnc(-c3c(-c4ccccc4)nn4ccccc34)cc12 | 1.07 ± 0.051
72 | Cc1cc(NS(=O)(=O)c2ccc(N)cc2)no1 [Sulfamethoxazole] | 1.046 ± 0.0036
73 | COc1c/c(=C2\C=c3ccccc3=N2)[nH]/c1=C\c1[nH]c(C)cc1C [Obatoclax Mesylate (GX15-070)] | 0.354 ± 0.035
74 | CC(C)N(CCCNC(=O)Nc1ccc(C(C)(C)C)cc1)C[C@H]1O[C@@H](n2cc(Br)c3c(N)ncnc32)[C@H](O)[C@@H]1O | 1.17 ± 0.032
75 | CC(C)(C)C(=O)C(Oc1ccc(Cl)cc1)n1ccnc1 (stereo not given) [Climbazole] | 0.892 ± 0.06
76 | CC1(C)S[C@@H]2[C@H](NC(=O)C(C(=O)O)c3ccccc3)C(=O)N2[C@H]1C(=O)O (stereo not given in full) [Carbenicillin disodium] | 0.775 ± 0.36
77 | CN(C)/N=N/c1[nH]cnc1C(N)=O [Dacarbazine] | 1.14 ± 0.095
78 | CC1C(=O)OC2C(O)C34C5CC(C(C)(C)C)C36C(OC(=O)C6O)OC4(C(=O)O5)C12O (stereo not given) [Ginkgolide B] | 1.1 ± 0.025
79 | Cn1cc(-c2ccc3ncc(Cc4ccc5ncccc5c4)n3n2)cn1 | 1.09 ± 0.075
80 | Cc1onc(-c2c(Cl)cccc2Cl)c1C(=O)N[C@@H]1C(=O)N2[C@@H]1SC(C)(C)[C@@H]2C(=O)O [Dicloxacillin Sodium] | 1.09 ± 0.02
